Source: the RNAGym collection of RNA variant scans (doi:10.1101/gad.245936.114)
Variants at the floor of the assay are shown more often than the library holds them.

B1: tRNA (parent)
chain: CUCUCGGUAGCCAAGUUGGUUUAAGGCGCAAGACUUUAAUUUAUCACUACGAAAUCUUGAGAUCGGGCGUUCGACUCGCCCCCGGGAGAUUUUUUCCUCGAGCAA

Variants of: B1
Assay: nonsense suppression (GFP-seq) (ratio to wild type); higher = more function; SUP4oc tRNA, yeast GFP reporter sort-seq
Outline: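 Yeast were grown in raffinose/galactose medium with 80 mg/L adenine, each strain bearing a genome-integrated ochre-suppressor tRNA variant from a ~3% random-mutation library, a galactose-driven GFP ochre reporter, and RFP. After sorting into GFP/RFP bins, every bin was sequenced on an Illumina platform at phred ≥30. The GFPSEQ value, a measure of nonsense suppression, is the weighted bin median GFP/RFP relative to the unmutated parent tRNA, using each variant's estimated cell share per bin as the weight. Only variants with ≥100 reads and ≥30 cells were included.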

Q: For CUCUCGGUAGCCAAGUUGGUUUAAGGCGCAAGACUUUAAUUUAUCACUACGAAAUCUUGAGAUCGGGCGCUCGACUCGCCGCCGAGAGAUUUUUUCCUCGAGCAA [U70C C81G G85A], which nonsense suppression is on record?
A: ≤ 0.026

Q: With CUCUCGGUAGCCAAGUUGGUUUAAGGCGCAAGACUUUAAUUUAUCACUACGAAAUCUUGAGAUCGGGCGAUCGACUCGCCCACGGGAGAUUUUUUCCUCGAGCAA [U70A C82A] as the variant, how does the nonsense suppression read?
A: ≤ 0.026

Q: Which nonsense suppression does the source give for CUCUCGGUAGCCAAGUUGGUUUAAGGCGCAAGACUUUAAUUUAUCACUACGAAAUCUUGAGAUCGGGCGUCCGACUCGACCCCGGGAGAUUUUUUCCUCGAGCAA [U71C C79A] here?
A: ≤ 0.026

Q: With CUCUCGGUAGCCAAGUUGGUUUAAGGCGCAAGACUUUAAUUUAUCACUACGAAAUCUUGAGAUCGGGCGCUCGACUCGCCCCCGGAAGAUUUUUUCCUCGAGCAA [U70C G86A] as the variant, how does the nonsense suppression read?
A: ≤ 0.026

Q: With CUCUCGGUAGCCAAGUUGGUUUAAGGCGCAAGACUUUAAUUUAUCACUACGAAAUCUUGAGAUCGGGCGCUCGAUUCGCCCCCGGGAGAUUUUUUCCUCGAGCAA [U70C C75U] as the variant, how does the nonsense suppression read?
A: ≤ 0.026

Q: With CUCUCGGUAGCCAAGUUGGUUUAAGGCGCAAGACUUUAAUUUAUCACUACGAAAUCUUGAGAUCGGGCGGUCGACUCGCCCCCAGGAGAUUUUUUCCUCGAGCAA [U70G G84A] as the variant, how does the nonsense suppression read?
A: ≤ 0.026

Q: For CUCUCGGUAGCCAAGUUGGUUUAAGGCGCAAGACUUUAAUUUAUCACUACGAAAUCUUGAGAUCGGGCGAGCGACUCGCCCCCGGGAGAUUUUUUCCUCGAGCAA [U70A U71G], which nonsense suppression is on record?
A: ≤ 0.026

Q: With CUCUCGGUAGCCAAGUUGGUUUAAGGCGCAAGACUUUAAUUUAUCACUACGAAAUCUUGAGAUCGGGCGCUCGACUCGCCCCCGUGAGAUUUUUUCCUCGAGCAA [U70C G85U] as the variant, how does the nonsense suppression read?
A: ≤ 0.026

Q: Which nonsense suppression does the source give for CUCUCGGUAGCCAAGUUGGUUUAAGGCGCAAGACUUUAAUUUAUCACUACGAAAUCUUGAGAUCGGGCGCUCGACUCGCCCCAGGGAGAUUUUUUCCUCGAGCAA [U70C C83A] here?
A: ≤ 0.026

Q: With CUCUCGGUAGCCAAGUUGGUUUAAGGCGCAAGACUUUAAUUUAUCACUACGAAAUCUUGAGAUCGGGCGUACGACUCGCCCCCGGUAGAUUUUUUCCUCGAGCAA [U71A G86U] as the variant, how does the nonsense suppression read?
A: ≤ 0.026

Q: For CUCUCGGUAGCCAAGUUGGUUUAAGGCGCAAGACUUUAAUUUAUCACUACGAAAUCUUGAGAUCGGGCGUCCGUCUCGCCCCCGGGAGAUUUUUUCCUCGAGCAA [U71C A74U], which nonsense suppression is on record?
A: ≤ 0.026

Q: Which nonsense suppression does the source give for CUCUCGGUAGCCAAGUUGGUUUAAGGCGCAAGACUUUAAUUUAUCACUACGAAAUCUUGAGAUCGGGCUUUCGACGCGCCCCCGGGAGAUUUUUUCCUCGAGCAA [G69U U76G] here?
A: ≤ 0.026

Q: For CUCUCGGUAGCCAAGUUGGUUUAAGGCGCAAGACUUUAAUUUAUCACUACGAAAUCUUGAGAUCGGGCUUUCGACUCGCACCCGGGACAUUUUUUCCUCGAGCAA [G69U C80A G88C], which nonsense suppression is on record?
A: ≤ 0.026

Q: Which nonsense suppression does the source give for CUCUCGGUAGCCAAGUUGGUUUAAGGCGCAAGACUUUAAUUUAUCACUACGAAAUCUUGAGAUCGGGCGCUCGACUCGCCCCCGGGCGAUUUUUUCCUCGAGCAA [U70C A87C] here?
A: ≤ 0.026

Q: For CUCUCGGUAGCCAAGUUGGUUUAAGGCGCAAGACUUUAAUUUAUCACUACGAAAUCUUGAGAUCGGGCGCUCGACUCGCCCCCGGGGGAUUUUUUCCUCGAGCAA [U70C A87G], which nonsense suppression is on record?
A: ≤ 0.026

Q: Which nonsense suppression does the source give for CUCUCGGUAGCCAAGUUGGUUUAAGGCGCAAGACUUUAAUUUAUCACUACGAAAUCUUGAGAUCGGGCGGUUGACUCGCCCCCGGGAGAUUUUUUCCUCGAGCAA [U70G C72U] here?
A: ≤ 0.026

Q: For CUCUCGGUAGCCAAGUUGGUUUAAGGCGCAAGACUUUAAUUUAUCACUACGAAAUCUUGAGAUCGGGCGUCCGACUGGCCCCCAGGAGAUUUUUUCCUCGAGCAA [U71C C77G G84A], which nonsense suppression is on record?
A: ≤ 0.026

Q: Which nonsense suppression does the source give for CUCUCGGUAGCCAAGUUGGUUUAAGGCGCAAGACUUUAAUUUAUCACUACGAAAUCUUGAGAUCGGGCGGUCGACUCGCCCCCGGGAUCUUUUUUCCUCGAGCAA [U70G G88U A89C] here?
A: ≤ 0.026

Q: For CUCUCGGUAGCCAAGUUGGUUUAAGGCGCAAGACUUUAAUUUAUCACUACGAAAUCUUGAGAUCGGGCGAUCGAGUCGCCCCCGGGAGAUUUUUUCCUCGAGCAA [U70A C75G], which nonsense suppression is on record?
A: ≤ 0.026

Q: For CUCUCGGUAGCCAAGUUGGUUUAAGGCGCAAGACUUUAAUUUAUCACUACGAAAUCUUGAGAUCGGGCGUACGAAUCGCCCCCGGGAGAUUUUUUCCUCGAGCAA [U71A C75A], which nonsense suppression is on record?
A: ≤ 0.026

Q: Which nonsense suppression does the source give for CUCUCGGUAGCCAAGUUGGUUUAAGGCGCAAGACUUUAAUUUAUCACUACGAAAUCUUGAGAUCGGGCGUACGAGUCGCCCCCGGGAGAUUUUUUCCUCGAGCAA [U71A C75G] here?
A: ≤ 0.026

Q: Which nonsense suppression does the source give for CUCUCGGUAGCCAAGUUGGUUUAAGGCGCAAGACUUUAAUUUAUCACUACGAAAUCUUGAGAUCGGGCGGUCGACUCGCCUCCGGGAGAUUUUUUCCUCGAGCAA [U70G C81U] here?
A: ≤ 0.026

Q: For CUCUCGGUAGCCAAGUUGGUUUAAGGCGCAAGACUUUAAUUUAUCACUACGAAAUCUUGAGAUCGGGCGAUCGACUCGCUCCCGGGAGAUUUUUUCCUCGAGCAA [U70A C80U], which nonsense suppression is on record?
A: ≤ 0.026

Q: For CUCUCGGUAGCCAAGUUGGUUUAAGGCGCAAGACUUUAAUUUAUCACUACGAAAUCUUGAGAUCGGGCGAUCGACGCGCCCCCGGGAGAUUUUUUCCUCGAGCAA [U70A U76G], which nonsense suppression is on record?
A: 0.183

Q: With CUCUCGGUAGCCAAGUUGGUUUAAGGCGCAAGACUUUAAUUUAUCACUACGAAAUCUUGAGAUCGGGCGUACGACCCGCCCCCGGGAGAUUUUUUCCUCGAGCAA [U71A U76C] as the variant, how does the nonsense suppression read?
A: ≤ 0.026

Q: Which nonsense suppression does the source give for CUCUCGGUAGCCAAGUUGGUUUAAGGCGCAAGACUUUAAUUUAUCACUACGAAAUCUUGAGAUCGGGCGCUCGACUCGCCCCCUGGAGAUUUUUUCCUCGAGCAA [U70C G84U] here?
A: ≤ 0.026

Q: Which nonsense suppression does the source give for CUCUCGGUAGCCAAGUUGGUUUAAGGCGCAAGACUUUAAUUUAUCACUACGAAAUCUUGAGAUCGGGCUUUCGACUCGCCCCCGGCAGAUUUUUUCCUCGAGCAA [G69U G86C] here?
A: 0.17
